Converted amounts (≈) assume the structure as drawn. “And” between values parts separate entries of the source, which are not always exact repeats. Identical values can stand only once. Like-named read-outs stand apart in the source and are kept apart here.
Columns and labels:
Format in all cases: cell-based
[1] = system: S. aureus
[2] = system: S. pneumoniae
[3] = system: H. influenzae; details: H. influenzae 49247 Ery-S
[4] = S. aureus 96:11480 Ery-R (MLSb)

| SMILES | MIC [1, 4] | MIC ([1]; S. aureus 29213 Ery-S) | MIC ([2]; S. pneumoniae 303 Ery-R (ermB)) | MIC [3] [µg/mL] | MIC ([2]; S. pneumoniae 163 Ery-R (MefA)) | MIC ([1]; S. aureus 25923 Ery-S) |
| --- | --- | --- | --- | --- | --- | --- |
| CCC1OC(=O)C(C)C(=O)C(C)C(OC2OC(C)CC(N(C)C)C2O)C(C)(OC)CC(C)C(=O)C(C)C2N(CCCCn3cc(-c4ccc(C(F)(F)F)cc4)nn3)C(=O)OC12C (stereo not drawn) [Entry 13b] | 0.25 µg/mL (≈ 0.284 µM) | 0.25 µg/mL (≈ 0.284 µM) | 8 µg/mL (≈ 9.09 µM) | 8 (≈ 9.09 µM) |  |  |
| CCC1OC(=O)C(C)C(=O)C(C)C(OC2OC(C)CC(N(C)C)C2O)C(C)(OC)CC(C)C(=O)C(C)C2N(CCCCn3cc(-c4cccnc4)nn3)C(=O)OC12C (stereo not drawn) [Entry 15b] | 4 µg/mL (≈ 4.92 µM) |  | 64 µg/mL (≈ 78.7 µM) | 64 (≈ 78.7 µM) | 2 µg/mL (≈ 2.46 µM) |  |
| CCC1OC(=O)C(C)C(=O)C(C)C(OC2OC(C)CC(N(C)C)C2O)C(C)(OC)CC(C)C(=O)C(C)C2N(CCCn3cc(-c4ccccn4)nn3)C(=O)OC12C (stereo not drawn) [Entry 14a] | 2 µg/mL (≈ 2.5 µM) | 2 µg/mL (≈ 2.5 µM) | > 64 µg/mL | > 64 | 0.5 µg/mL (≈ 0.626 µM) |  |
| CCC1OC(=O)C(C)C(=O)C(C)C(OC2OC(C)CC(N(C)C)C2O)C(C)(OC)CC(C)C(=O)C(C)C2N(CCCn3cc(Cn4nnc5ccccc54)nn3)C(=O)OC12C (stereo not drawn) [Entry 18a] | 2 µg/mL (≈ 2.34 µM) | 1 µg/mL (≈ 1.17 µM) | >64 64 64 μg/mL | > 64 | 0.5 µg/mL (≈ 0.586 µM) |  |
| CC[C@H]1OC(=O)[C@@](C)(F)C(=O)[C@H](C)[C@@H](OC2OC(C)CC(N(C)C)C2O)[C@@](C)(OC)C[C@@H](C)C(=O)[C@H](C)[C@H]2N(CCCCn3cc(-c4ccccn4)nn3)C(=O)O[C@]12C (stereo partly drawn) [Entry 23a] | ≦0.125 μg/mL | ≦0.125 μg/mL | ≦0.125 μg/mL | 2 (≈ 2.41 µM) | ≦0.125 μg/mL |  |
| CCC1OC(=O)C(C)C(=O)C(C)C(OC2OC(C)CC(N(C)C)C2O)C(C)(OC)CC(C)C(=O)C(C)C2N(CCCCn3cc(COc4c(Cl)cccc4Cl)nn3)C(=O)OC12C (stereo not drawn) [Entry 17b] | ≤ 0.125 µg/mL | ≤ 0.125 µg/mL | 1 µg/mL (≈ 1.1 µM) | 16 (≈ 17.6 µM) |  |  |
| CCC1OC(=O)C(C)C(=O)C(C)C(OC2OC(C)CC(N(C)C)C2O)C(C)(OC)CC(C)C(=O)C(C)C2N(CCCCn3cc(-c4cccc(N)c4)nn3)C(=O)OC12C (stereo not drawn) [Entry 16b] |  |  | ≤ 0.125 µg/mL | 2 (≈ 2.42 µM) |  |  |
| CC[C@H]1OC(=O)[C@H](C)[C@@H](OC2CC(C)(OC)C(O)C(C)O2)[C@H](C)[C@@H](OC2OC(C)CC(N(C)C)C2O)[C@@](C)(OC)C[C@@H](C)C(=O)[C@H](C)[C@H]2N(CCCCn3cc(-c4cccc(N)c4)nn3)C(=O)O[C@]12C (stereo partly drawn) [Entry 20c] |  |  | 2 µg/mL (≈ 2.03 µM) |  | 0.5 µg/mL (≈ 0.506 µM) | 1 µg/mL (≈ 1.01 µM) |
| CC[C@H]1OC(=O)[C@H](C)[C@@H](OC2CC(C)(OC)C(O)C(C)O2)[C@H](C)[C@@H](OC2OC(C)CC(N(C)C)C2O)[C@@](C)(OC)C[C@@H](C)C(=O)[C@H](C)[C@H]2N(CCCCn3cc(COc4c(Cl)cccc4Cl)nn3)C(=O)O[C@]12C (stereo partly drawn) [Entry 20d] |  |  | 2 µg/mL (≈ 1.87 µM) |  | 0.5 µg/mL (≈ 0.467 µM) | 1 µg/mL (≈ 0.934 µM) |
| CCC1OC(=O)C(C)C(=O)C(C)C(OC2OC(C)CC(N(C)C)C2O)C(C)(OC)CC(C)C(=O)C(C)C2N(CCCn3cc(-c4ccc(Br)cc4)nn3)C(=O)OC12C (stereo not drawn) [Entry 12a] | 0.5 µg/mL (≈ 0.57 µM) | 0.25 µg/mL (≈ 0.285 µM) | 8 µg/mL (≈ 9.12 µM) | 64 (≈ 73 µM) |  |  |
| CCC1OC(=O)C(C)C(=O)C(C)C(OC2OC(C)CC(N(C)C)C2O)C(C)(OC)CC(C)C(=O)C(C)C2N(CCCn3cc(COc4c(Cl)cccc4Cl)nn3)C(=O)OC12C (stereo not drawn) [Entry 17a] | 1 µg/mL (≈ 1.11 µM) | 1 µg/mL (≈ 1.11 µM) | > 64 µg/mL | > 64 |  |  |
| CCC1OC(=O)C(C)C(=O)C(C)C(OC2OC(C)CC(N(C)C)C2O)C(C)(OC)CC(C)C(=O)C(C)C2N(CCCn3cc(-c4cccc(N)c4)nn3)C(=O)OC12C (stereo not drawn) [Entry 16a] |  | 0.5 µg/mL (≈ 0.615 µM) | > 64 µg/mL | 16 (≈ 19.7 µM) |  |  |
| CCC1OC(=O)C(C)C(=O)C(C)C(OC2OC(C)CC(N(C)C)C2O)C(C)(OC)CC(C)C(=O)C(C)C2N(CCCCCn3cc(-c4ccccn4)nn3)C(=O)OC12C (stereo not drawn) [Entry 14c] |  |  | 0.25 µg/mL (≈ 0.302 µM) | 64 (≈ 77.4 µM) |  |  |
| CCC1OC(=O)C(C)C(=O)C(C)C(OC2OC(C)CC(N(C)C)C2O)C(C)(OC)CC(C)C(=O)C(C)C2N(CCCn3cc(-c4ccc(C(F)(F)F)cc4)nn3)C(=O)OC12C (stereo not drawn) [Entry 13a] | 2 µg/mL (≈ 2.31 µM) | 1 µg/mL (≈ 1.15 µM) | 16 µg/mL (≈ 18.5 µM) | > 64 |  |  |
| CC[C@H]1OC(=O)[C@H](C)[C@@H](OC2CC(C)(OC)C(O)C(C)O2)[C@H](C)[C@@H](OC2OC(C)CC(N(C)C)C2O)[C@@](C)(OC)C[C@@H](C)C(=O)[C@H](C)[C@H]2N(CCCCn3cc(-c4cccnc4)nn3)C(=O)O[C@]12C (stereo partly drawn) [Entry 20b] |  |  | 1 µg/mL (≈ 1.03 µM) |  | ≦0.06 μg/mL | 0.25 µg/mL (≈ 0.257 µM) |
| CC[C@H]1OC(=O)[C@H](C)[C@@H](OC2CC(C)(OC)C(O)C(C)O2)[C@H](C)[C@@H](OC2OC(C)CC(N(C)C)C2O)[C@@](C)(OC)C[C@@H](C)C(=O)[C@H](C)[C@H]2N(CCCCn3cc(-c4ccccn4)nn3)C(=O)O[C@]12C (stereo partly drawn) [Entry 20a] |  |  | 2 µg/mL (≈ 2.06 µM) |  | 0.125 µg/mL (≈ 0.128 µM) | 0.25 µg/mL (≈ 0.257 µM) |
| CCC1OC(=O)C(C)C(=O)C(C)C(OC2OC(C)CC(N(C)C)C2O)C(C)(OC)CC(C)C(=O)C(C)C2N(CCCCn3cc(-c4ccccc4)nn3)C(=O)OC12C (stereo not drawn) [Entry 11b] | 0.25 µg/mL (≈ 0.308 µM) |  | 2 µg/mL (≈ 2.46 µM) | 8 (≈ 9.85 µM) |  |  |
| CCC1OC(=O)C(C)C(=O)C(C)C(OC2OC(C)CC(N(C)C)C2O)C(C)(OC)CC(C)C(=O)C(C)C2N(CCCCCn3cc(-c4ccc(C(F)(F)F)cc4)nn3)C(=O)OC12C (stereo not drawn) [Entry 13c] | 1 µg/mL (≈ 1.12 µM) | 0.5 µg/mL (≈ 0.559 µM) | 2 µg/mL (≈ 2.24 µM) | 64 (≈ 71.6 µM) | 0.5 µg/mL (≈ 0.559 µM) |  |
| CCC1OC(=O)C(C)C(=O)C(C)C(OC2OC(C)CC(N(C)C)C2O)C(C)(OC)CC(C)C(=O)C(C)C2N(CCCCCn3cc(-c4cccnc4)nn3)C(=O)OC12C (stereo not drawn) [Entry 15c] | 0.25 µg/mL (≈ 0.302 µM) |  | 4 µg/mL (≈ 4.84 µM) | 16 (≈ 19.3 µM) | 0.25 µg/mL (≈ 0.302 µM) |  |
| CCC1OC(=O)C(C)C(=O)C(C)C(OC2OC(C)CC(N(C)C)C2O)C(C)(OC)CC(C)C(=O)C(C)C2N(CCCCCn3cc(-c4ccc(Br)cc4)nn3)C(=O)OC12C (stereo not drawn) [Entry 12c] |  |  | 1 µg/mL (≈ 1.11 µM) | 16 (≈ 17.7 µM) |  |  |
| CCC1OC(=O)C(C)C(=O)C(C)C(OC2OC(C)CC(N(C)C)C2O)C(C)(OC)CC(C)C(=O)C(C)C2N(CCCCCn3cc(COc4c(Cl)cccc4Cl)nn3)C(=O)OC12C (stereo not drawn) [Entry 17c] | 0.5 µg/mL (≈ 0.541 µM) | 0.25 µg/mL (≈ 0.27 µM) | 2 µg/mL (≈ 2.16 µM) | 32 (≈ 34.6 µM) |  |  |
| CCC1OC(=O)C(C)C(=O)C(C)C(OC2OC(C)CC(N(C)C)C2O)C(C)(OC)CC(C)C(=O)C(C)C2N(CCCCn3cc(-c4ccc(Br)cc4)nn3)C(=O)OC12C (stereo not drawn) [Entry 12b] |  |  | 8 µg/mL (≈ 8.98 µM) | 8 (≈ 8.98 µM) |  |  |
| CCC1OC(=O)C(C)C(=O)C(C)C(OC2OC(C)CC(N(C)C)C2O)C(C)(OC)CC(C)C(=O)C(C)C2N(CCCCn3cc(Cn4nnc5ccccc54)nn3)C(=O)OC12C (stereo not drawn) [Entry 18b] | 2 µg/mL (≈ 2.31 µM) | 1 µg/mL (≈ 1.15 µM) | 64 μg/mL and >64 64 64 μg/mL | 32 (≈ 36.9 µM) | 4 µg/mL (≈ 4.61 µM) |  |
| CCC1OC(=O)C(C)C(=O)C(C)C(OC2OC(C)CC(N(C)C)C2O)C(C)(OC)CC(C)C(=O)C(C)C2N(CCCCn3cc(-c4ccccn4)nn3)C(=O)OC12C (stereo not drawn) [Entry 14b] |  |  | ≤ 0.125 µg/mL | 4 (≈ 4.92 µM) |  |  |
| CCC1OC(=O)C(C)C(=O)C(C)C(OC2OC(C)CC(N(C)C)C2O)C(C)(OC)CC(C)C(=O)C(C)C2N(CCCn3cc(-c4ccccc4)nn3)C(=O)OC12C (stereo not drawn) [Entry 11a] | 1 µg/mL (≈ 1.25 µM) | 1 µg/mL (≈ 1.25 µM) |  | > 64 |  |  |
| CCC1OC(=O)C(C)C(=O)C(C)C(OC2OC(C)CC(N(C)C)C2O)C(C)(OC)CC(C)C(=O)C(C)C2N(CCCCCn3cc(-c4ccccc4)nn3)C(=O)OC12C (stereo not drawn) [Entry 11c] | ≤ 0.125 µg/mL |  | 0.25 µg/mL (≈ 0.303 µM) | 16 (≈ 19.4 µM) |  |  |
| CCC1OC(=O)C(C)C(=O)C(C)C(OC2OC(C)CC(N(C)C)C2O)C(C)(OC)CC(C)C(=O)C(C)C2N(CCCn3cc(-c4cccnc4)nn3)C(=O)OC12C (stereo not drawn) [Entry 15a] | 2 µg/mL (≈ 2.5 µM) | 2 µg/mL (≈ 2.5 µM) | > 64 µg/mL | > 64 | 1 µg/mL (≈ 1.25 µM) |  |
| CCC1OC(=O)C(C)C(=O)C(C)C(OC2OC(C)CC(N(C)C)C2O)C(C)(OC)CC(C)C(=O)C(C)C2N(CCCCCn3cc(-c4cccc(N)c4)nn3)C(=O)OC12C (stereo not drawn) [Entry 16c] |  |  | 0.25 µg/mL (≈ 0.297 µM) | 8 (≈ 9.51 µM) |  |  |
| CCC1OC(=O)C(C)C(=O)C(C)C(OC2OC(C)CC(N(C)C)C2O)C(C)(OC)CC(C)C(=O)C(C)C2N(CCCCCn3cc(Cn4nnc5ccccc54)nn3)C(=O)OC12C (stereo not drawn) [Entry 18c] | ≤ 0.125 µg/mL | ≤ 0.125 µg/mL |  | 8 (≈ 9.08 µM) | ≤ 0.125 µg/mL |  |
| CC[C@H]1OC(=O)[C@H](C)[C@@H](OC2CC(C)(OC)C(O)C(C)O2)[C@H](C)[C@@H](OC2OC(C)CC(N(C)C)C2O)[C@@](C)(OC)C[C@@H](C)C(=O)[C@H](C)[C@H]2N(CCCCn3cc(Cn4nnc5ccccc54)nn3)C(=O)O[C@]12C (stereo partly drawn) [Entry 20e] |  |  | 2 µg/mL (≈ 1.95 µM) |  | 0.5 µg/mL (≈ 0.487 µM) | ≦0.25 μg/mL |
